# Source: paper PMC6919601, “Identification of Plasmodium dipeptidyl aminopeptidase allosteric inhibitors by high throughput screening” (PLoS ONE, 2019)
# Among all 110,000 compounds or so, about 230 (0.21%) showed an effect of 50% or more. This is one part of the list.
# Biological target: DPAP1 (Plasmodium falciparum, UniProt Q8IIJ9)
# Assay: primary screen, percent inhibition; read by cleavage of a fluorogenic dipeptide substrate; higher = more effect of the substance
# Set-up: species or system P. falciparum D10 trophozoite lysates; single well
# 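Note: 30 min substrate incubation versus DMSO and 10 µM JCP410 controls.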
# Chain of DPAP1 (Q8IIJ9 whole entry, looked up): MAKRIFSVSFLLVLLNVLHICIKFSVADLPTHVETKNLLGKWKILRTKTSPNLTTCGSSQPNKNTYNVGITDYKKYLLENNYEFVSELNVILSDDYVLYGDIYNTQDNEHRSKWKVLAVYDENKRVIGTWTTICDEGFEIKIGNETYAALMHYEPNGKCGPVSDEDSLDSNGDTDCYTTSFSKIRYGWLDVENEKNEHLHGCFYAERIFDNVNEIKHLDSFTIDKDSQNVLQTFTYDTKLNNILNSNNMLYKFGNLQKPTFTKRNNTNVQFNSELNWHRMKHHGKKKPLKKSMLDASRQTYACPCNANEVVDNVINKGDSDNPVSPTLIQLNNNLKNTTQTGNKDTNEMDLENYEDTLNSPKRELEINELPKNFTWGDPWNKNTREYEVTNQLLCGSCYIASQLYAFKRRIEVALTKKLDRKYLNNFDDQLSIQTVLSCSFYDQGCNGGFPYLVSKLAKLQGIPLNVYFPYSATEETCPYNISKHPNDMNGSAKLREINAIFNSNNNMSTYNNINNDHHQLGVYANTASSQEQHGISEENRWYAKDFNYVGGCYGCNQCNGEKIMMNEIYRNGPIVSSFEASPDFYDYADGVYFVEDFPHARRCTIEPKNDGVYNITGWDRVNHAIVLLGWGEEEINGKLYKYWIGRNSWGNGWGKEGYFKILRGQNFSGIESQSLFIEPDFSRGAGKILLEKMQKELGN
row,SMILES,% Inhibition @ 10 uM [%]
1,CCCS(=O)(=O)c1nc(S(=O)(=O)c2ccc(C)cc2)c(NCCN(C)C)s1,-2.25
2,CCCN1C(=O)c2[nH]nc(-c3c(C)cc(C)cc3O)c2C1c1cc(OC)c(OC)c(OC)c1 (stereo not shown),4.83
3,Cc1cc(C(=O)N2CCc3ccccc3C2)[nH]n1,0.359
4,CCOc1ccc(/C=C/C(=O)Nc2nc(-c3ccccc3)cs2)cc1,3.54
5,CC(C)(C)NS(=O)(=O)Nc1ncccn1,1.42
6,COc1cccc2c3c(c(C)nc12)CC(C)O3 (stereo not shown),-0.711
7,N#Cc1ccc(N2C(=O)C3ON(c4ccccc4)C(c4ccccc4)C3C2=O)cc1 (stereo not shown),-0.68
8,COc1ccc(CC(C)NCCC2=CCCCC2)cc1 (stereo not shown),-8.55
9,CCN1CCN(S(=O)(=O)c2ccc(OCCC(C)C)c(C(N)=O)c2)CC1,0.776
10,CCOc1ccc2nc(NC(=O)CC(C)C)sc2c1,4.44
11,CCCN1CCC(NCCc2ccc(F)cc2)CC1,-4.37
12,COc1cccc(NC(=O)c2ccc(N(Cc3ccc(Cl)cc3)S(C)(=O)=O)cc2)c1,-0.088
13,Cc1ccc(C(=O)C2=C(O)C(=O)N(CC3CCCO3)C2c2ccc(Br)cc2)cc1 (stereo not shown),0.161
14,CCN(CC)CCCN(C)C(=O)Cn1nc(Cc2ccncc2)c2ccccc2c1=O,9.33
15,CC(C)NC(=O)Cn1cnc2onc(-c3ccc(F)cc3)c2c1=O,-6.88
16,CCOC(=O)c1cc(-c2cccs2)no1,21.9
17,COCCNC(=O)C1CCCN(S(C)(=O)=O)C1 (stereo not shown),-4.83
18,COc1ccc(CCNC(=O)CSc2nnc3c4ccccc4n(C(C)C)c3n2)cc1OC,-0.834
19,CCN(CC)S(=O)(=O)c1ccc(NC(=O)c2cccc(C)c2)cc1,3.13
20,O=C(Nc1ccc(F)c(Cl)c1)c1cc2nc(C(F)F)cc(C(F)F)n2n1,-8.02
21,CCCCN(C(=O)c1ccc(Cl)cc1)C1CC2CCC(C1)N2C (stereo not shown),4.37
22,CCCc1cc(O)n2nc(NC(=O)c3ccc(F)cc3)nc2n1,0.401
23,O=C(c1ccco1)N1CCN(Cc2ccccc2F)CC1,-0.641
24,COc1cccc(NC(=O)c2cc(-c3cccs3)nc3ccccc23)c1,1.72
25,CC[C@@H](C)[C@H](NC(=O)CCC(=O)OC)C(=O)N[C@@H](CCc1ccccc1)C(=O)CO,-6.56
26,Fc1ccc(CNC23CN4CN(CN(C4)C2)C3)cc1,8.38

row,SMILES,% Inhibition @ 10 uM [%]
1,C=Cc1ccc(Cn2c(C(=O)O)c(CNCCc3ccccc3OC)c3ccc(C)cc32)cc1,3.13
2,Cc1cc(/N=C/N(C)C)c2ccccc2n1,0.266
3,CC1CCN(C(=O)Nc2cccc(NC(=O)N3CCC(C)CC3)c2)CC1,-0.67
4,Cc1ccc(C(=O)N/C(=C\c2ccco2)C(=O)N2CCc3ccccc3C2)cc1C,-2.24
5,CC(C(=O)O)n1nc(-c2ccccc2)c2ccccc21 (stereo not shown),3.24
6,CC(C)c1ccc(NC(=O)c2ccc3c(c2)C(=O)N(Cc2cccnc2)C3=O)cc1,6.26
7,Cc1cc(C)n2nc(NCc3c(F)cccc3Cl)nc2n1,-0.671
8,CN(C)CCN(C)Cc1cccc(Cl)c1Cl,-0.351
9,Cc1ccccc1S(=O)(=O)Cc1ccc(C(=O)N2CCN(C)CC2)o1,1.93
10,Cc1[nH]cnc1CN1CC=C(c2ccc(F)cc2)CC1,-5.73
11,O=C(NCc1cn2ccsc2n1)c1cccc(Cl)c1,2.57
12,CCOc1ccc(C(=O)Nc2ccccc2C)cc1,0.147
13,Cc1ccc(-n2ncc3c(O)nc(SCC(=O)N4CCCCC4)nc32)cc1C,-0.00718
14,CS(=O)(=O)N1CCc2cc(C(=O)Nc3ccccc3)ccc21,3.57
15,O=C(O)c1sc2cc(Cl)ccc2c1Cl,-1.54
16,N=C1S/C(=C\c2c[nH]nc2-c2ccccc2)C(=O)N1c1nccs1,11.2
17,COc1ccc(C2C(C#N)=C(N)N(c3nc[nH]n3)C3=C2C(=O)CC(C)(C)C3)cc1 (stereo not shown),0.726
18,CCCCc1ccc(-c2csc(/C(C#N)=C\C=C\c3ccccc3)n2)cc1,-1.25
19,CN(C)c1nc(N)nc(COc2ccc(C3CCCCC3)cc2)n1,-5.96
20,CN1CCN(C(=O)c2ccccc2NC(=O)c2ccccc2)CC1,1.08
21,Cc1ccccc1Nc1ccccc1C(=O)N1CCCCC1,-3.39
22,O=C1/C(=C/c2ccncc2)N2CCC1CC2,-3.79
23,Nc1c2c(nc3ccc(Br)cc13)N(C1CCCCC1)CC2,-6.06
24,COc1ccc(CCNC2CC(=O)N(c3ccc(OC)cc3)C2=O)cc1 (stereo not shown),0.163
25,O=C(NC(=S)N1CCCCCC1)c1cccnc1,-4.96
26,OCC1CCCCN1Cc1cccc(F)c1 (stereo not shown),-2.58

row,SMILES,% Inhibition @ 10 uM [%]
1,CC(C)(C)c1ccc(O)c(CNC2CCCCC2)c1,-6.42
2,Cc1cc(C(F)F)n2nc(C(=O)NCc3ccccc3F)nc2n1,-0.958
3,Cc1ccc(C)c2c3c([nH]c12)-c1nonc1CC3,-5.92
4,Cn1c(SCC(N)=O)nc2c(oc3ccccc32)c1=O,-3
5,COc1cc(-c2noc(CN3CCCCC3C)n2)cc(OC)c1OC (stereo not shown),4.28
6,CCOC(=O)c1sc(NC(=O)COc2ccc(Cl)cc2)nc1C,-6.86
7,O=[N+]([O-])c1ccc(S(=O)(=O)N2CCOCC2)cc1,-0.0372
8,C=CCC(C)(CC=C)NS(=O)(=O)c1ccc(NC(C)=O)cc1,-10.2
9,Cc1nc2cc(S(=O)(=O)N3CCC(C(=O)NCCc4ccccc4)CC3)ccc2n1C1CCCC1,-3.53
10,CCN(CC)C(=O)C1=C(C)N=C(S)NC1c1ccccc1OC (stereo not shown),-4.35
11,CCN1CCCC1CNC(=O)c1[nH]c2ccccc2c1Sc1ccccc1 (stereo not shown),-4.43
12,Cc1cc(Cl)ccc1OCCCC(=O)Nc1cccnc1,-5.19
13,Cc1cc2ccccc2n1CCNC(=O)Cc1cccc2ccccc12,1.39
14,CN1CCN(C(=O)COc2ccc(Cl)cc2Cl)CC1,-1.07
15,O=C(c1ccc2c(c1)OCO2)N1CCN(CCN2C(=O)c3cccc4cccc(c34)C2=O)CC1,-5.31
16,COc1ccc(-c2cc(C(=O)Nc3cccnc3Cl)no2)cc1,-4.07
17,COC(=O)c1ccc(-c2ccco2)n1CC(=O)O,3.24
18,COc1ccccc1S(=O)(=O)Cc1ccc(C(=O)NCCc2ccc(Cl)cc2)o1,-3.09
19,CCOC(=O)c1c(N)sc(C)c1C,-3.92
20,COc1ccc(-c2cc(C(=O)Nc3ccccn3)c3ccccc3n2)cc1OC,2.06
21,O=C1c2oc3ccccc3c(=O)c2C(c2ccc(F)cc2)N1c1nncs1 (stereo not shown),2.1
22,Cc1cccn2cc(CNS(=O)(=O)c3ccc(Br)cc3)nc12,-3.51
23,CCc1ccc2nc(N(CCN(C)C)C(=O)c3ccc(Cl)s3)sc2c1,-12.3
24,O=C1NC(=S)S/C1=C\c1ccc(-c2ccc(Br)cc2)o1,-6.22
25,CCOc1ccccc1/C=C1\C(=O)N(Cc2ccccc2)C(C)=C1C(=O)OC,0.131
26,CCOc1ccccc1C(=O)Nc1ccc(C)cc1,-8.95

row,SMILES,% Inhibition @ 10 uM [%]
1,Oc1nc(Cn2nnc(-c3ccccc3Cl)n2)nc2ccccc12,-5.72
2,Oc1cc(O)c2sc3nc(-c4cccnc4)cc(C(F)(F)F)c3c2n1,4.97
3,Cc1ccc(S(=O)(=O)N(Cc2ccc([N+](=O)[O-])cc2)C(C)(C)C)cc1,-5.5
4,O=C(NCCCc1ccccc1)C1CCCN(S(=O)(=O)N2CCOCC2)C1 (stereo not shown),-5.34
5,COc1ccc(-c2nnc(C3CCN(S(=O)(=O)c4ccc(F)c(C)c4)CC3)o2)cc1,-1.08
6,CCOc1ccccc1NC(=O)CN(c1ccc(Cl)cc1C)S(C)(=O)=O,1.92
7,CCOc1ccccc1CN1CCC(Cc2ccccc2)CC1,-6.47
8,CCN(CC)C(=O)c1sc(NC(=O)c2ccncc2)c(C(=O)OC)c1C,-1.19
9,COc1ccc(-c2ncc(-c3ccccc3)o2)cc1,2.65
10,Cc1nn(C2CCCCC2)c(N)c1-c1ccccc1,0.392
11,COc1cccc2sc(N(CCCN(C)C)C(=O)c3ccc(C(C)=O)cc3)nc12,8.99
12,CC(C)c1ccccc1OCCCCNC(C)(C)C,-3.38
13,Cc1ccccc1Cn1ccc(NC(=O)COCc2cc(-c3ccc4c(c3)OCO4)on2)n1,1.05
14,COc1cccc(-c2cn3nc(C4CC4)sc3n2)c1,-4.54
15,Cc1ccc(N2C(=O)CC(NCc3ccccc3)C2=O)cc1 (stereo not shown),4.22
16,Cc1ccc(Cn2nnc3sc4c(c3c2=O)CCCC4)cc1,-2.98
17,Cc1ccc(S(=O)(=O)N2C[C@@H](c3ccccc3)O[C@@H](c3ccccc3)C2)cc1,-1.38
18,Cc1nc(C(=O)Nc2nnc(-c3ccccc3)s2)cc2c1[nH]c1ccccc12,1.96
19,O=C(O)c1ncccc1C(=O)N1CCN(c2ccccc2F)CC1,-1.45
20,CCc1ccc(C2C(C#N)=C(N)Oc3[nH]nc(-c4ccccc4)c32)cc1 (stereo not shown),-1.64
21,CC(c1ccccc1)C1C(C#N)=C(N)OC2=C1C(=O)CC(C)(C)C2 (stereo not shown),-3.46
22,COc1ccc(S(=O)(=O)Nc2ccc(C(C)=O)cc2)cc1,2.64
23,Cc1ccc2c(CNC3CCC(C)CC3)c(C(=O)O)n(Cc3ccc(F)cc3)c2c1 (stereo not shown),1.26
24,Cc1ccc2c(c1)-c1c(cnn1CC(=O)N(Cc1ccco1)C1CCCCC1)CO2,-8.02
25,COc1ccc(OC)c(C2NC(S)=NC(C)=C2C(=O)Nc2ccccn2)c1 (stereo not shown),3.06
